# The supplement of paper PMC8728848
# The list shows a part of the results.
# B1: Siglec-F (Mus musculus), Q920G3 (protein)
# chain: MRWAWLLPLLWAGCLATDGYSLSVTGSVTVQEGLCVFVACQVQYPNSKGPVFGYWFREGANIFSGSPVATNDPQRSVLKEAQGRFYLMGKENSHNCSLDIRDAQKIDTGTYFFRLDGSVKYSFQKSMLSVLVIALTEVPNIQVTSTLVSGNSTKLLCSVPWACEQGTPPIFSWMSSALTSLGHRTTLSSELNLTPRPQDNGTNLTCQVNLPGTGVTVERTQQLSVIYAPQKMTIRVSWGDDTGTKVLQSGASLQIQEGESLSLVCMADSNPPAVLSWERPTQKPFQLSTPAELQLPRAELEDQGKYICQAQNSQGAQTASVSLSIRSLLQLLGPSCSFEGQGLHCSCSSRAWPAPSLRWRLGEGVLEGNSSNGSFTVKSSSAGQWANSSLILSMEFSSNHRLSCEAWSDNRVQRATILLVSGPKVSQAGKSETSRGTVLGAIWGAGLMALLAVCLCLIFFTVKVLRKKSALKVAATKGNHLAKNPASTINSASITSSNIALGYPIQGHLNEPGSQTQKEQPPLATVPDTQKDEPELHYASLSFQGPMPPKPQNTEAMKSVYTEIKIHKC
# Tests used:
# Assay in all cases: glycan array binding signal (z-score within array); higher = stronger binding
# Conditions in all cases: glycan notation: IUPAC condensed, linker removed
# Gal(b1-3)GalNAc(b1-3)Gal = target: Gal(b1-3)GalNAc(b1-3)Gal
# Method in brief: (§1)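 The binding signal is a Z-score computed within each array and averaged over linkers. Arrays of the same protein sequence at different concentrations or buffers were also averaged together. Data originate from 3228 arrays in the Consortium for Functional Glycomics database, kept only where the protein sequence was available.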
# [1] = target: Gal(b1-3)GalNAc(b1-3)Gal(a1-4)Gal(b1-4)Glc
# Method in brief: as §1
# [2] = target: Gal(b1-3)GalNAc(b1-4)Gal(b1-4)Glc
# Method in brief: as §1
# [3] = target: Gal(b1-3)GalNAc(b1-4)[Neu5Ac(a2-3)]Gal(b1-4)Glc
# Method in brief: as §1
# Gal(b1-3)GlcNAc = target: Gal(b1-3)GlcNAc
# Method in brief: as §1
# [4] = target: Gal(b1-3)GlcNAc(a1-3)Gal(b1-4)GlcNAc
# Method in brief: as §1
# [5] = target: Gal(b1-3)GlcNAc(a1-6)Gal(b1-4)GlcNAc
# Method in brief: as §1
# Gal(b1-3)GlcNAc(b1-2)Man = target: Gal(b1-3)GlcNAc(b1-2)Man
# Method in brief: as §1
# [6] = target: Gal(b1-3)GlcNAc(b1-2)Man(a1-3)[Gal(b1-3)GlcNAc(b1-2)Man(a1-6)]Man(b1-4)GlcNAc(b1-4)GlcNAc
# Method in brief: as §1
# [7] = target: Gal(b1-3)GlcNAc(b1-2)Man(a1-3)[Gal(b1-3)GlcNAc(b1-2)Man(a1-6)]Man(b1-4)GlcNAc(b1-4)[Fuc(a1-6)]GlcNAc
# Method in brief: as §1
# [8] = target: Gal(b1-3)GlcNAc(b1-2)Man(a1-3)[GlcNAc(b1-4)][Gal(b1-3)GlcNAc(b1-2)Man(a1-6)]Man(b1-4)GlcNAc(b1-4)GlcNAc
# Method in brief: as §1
# [9] = target: Gal(b1-3)GlcNAc(b1-2)[Gal(b1-3)GlcNAc(b1-6)]Man(a1-6)[Gal(b1-3)GlcNAc(b1-2)Man(a1-3)]Man(b1-4)GlcNAc(b1-4)GlcNAc
# Method in brief: as §1
# [10] = target: Gal(b1-3)GlcNAc(b1-3)Gal(b1-3)GlcNAc
# Method in brief: as §1
# [11] = target: Gal(b1-3)GlcNAc(b1-3)Gal(b1-4)Glc
# Method in brief: as §1
# [12] = target: Gal(b1-3)GlcNAc(b1-3)Gal(b1-4)GlcNAc
# Method in brief: as §1
# [13] = target: Gal(b1-3)GlcNAc(b1-3)Gal(b1-4)GlcNAc(b1-2)Man(a1-3)[Gal(b1-3)GlcNAc(b1-3)Gal(b1-4)GlcNAc(b1-2)Man(a1-6)]Man(b1-4)GlcNAc(b1-4)GlcNAc
# Method in brief: as §1
# [14] = target: Gal(b1-3)GlcNAc(b1-3)Gal(b1-4)GlcNAc(b1-2)[Gal(b1-3)GlcNAc(b1-3)Gal(b1-4)GlcNAc(b1-6)]Man(a1-6)[Gal(b1-3)GlcNAc(b1-3)Gal(b1-4)GlcNAc(b1-2)Man(a1-3)]Man(b1-4)GlcNAc(b1-4)[Fuc(a1-6)]GlcNAc
# Method in brief: as §1
# [15] = target: Gal(b1-3)GlcNAc(b1-3)Gal(b1-4)GlcNAc(b1-3)Gal(b1-4)GlcNAc(b1-2)[Gal(b1-3)GlcNAc(b1-3)Gal(b1-4)GlcNAc(b1-3)Gal(b1-4)GlcNAc(b1-6)]Man(a1-6)[Gal(b1-3)GlcNAc(b1-3)Gal(b1-4)GlcNAc(b1-3)Gal(b1-4)GlcNAc(b1-2)Man(a1-3)]Man(b1-4)GlcNAc(b1-4)[Fuc(a1-6)]GlcNAc
# Method in brief: as §1
# [16] = target: Gal(b1-3)GlcNAc(b1-3)Gal(b1-4)GlcNAc(b1-6)[Gal(b1-3)GlcNAc(b1-3)]Gal(b1-4)Glc
# Method in brief: as §1
# [17] = target: Gal(b1-3)GlcNAc(b1-3)Gal(b1-4)[Fuc(a1-3)]GlcNAc
# Method in brief: as §1
# [18] = target: Gal(b1-3)GlcNAc(b1-3)Gal(b1-4)[Fuc(a1-3)]GlcNAc(b1-6)[Gal(b1-3)GlcNAc(b1-3)]Gal(b1-4)Glc
# Method in brief: as §1
# [19] = target: Gal(b1-3)GlcNAc(b1-3)GalNAc
# Method in brief: as §1
# [20] = target: Gal(b1-3)GlcNAc(b1-6)Gal(b1-4)GlcNAc
# Method in brief: as §1
# [21] = target: Gal(b1-3)GlcNAc(b1-6)GalNAc
# Method in brief: as §1
# [22] = target: Gal(b1-3)GlcNAc(b1-6)[Gal(b1-3)]GalNAc
# Method in brief: as §1
# Gal(b1-3)GlcNAc6S = target: Gal(b1-3)GlcNAc6S
# Method in brief: as §1
# [23] = target: Gal(b1-3)[Fuc(a1-4)]GlcNAc
# Method in brief: as §1
# [24] = target: Gal(b1-3)[Fuc(a1-4)]GlcNAc(b1-2)Man
# Method in brief: as §1
# [25] = target: Gal(b1-3)[Fuc(a1-4)]GlcNAc(b1-2)Man(a1-3)[Gal(b1-3)[Fuc(a1-4)]GlcNAc(b1-2)Man(a1-6)]Man(b1-4)GlcNAc(b1-4)GlcNAc
# Method in brief: as §1
# [26] = target: Gal(b1-3)[Fuc(a1-4)]GlcNAc(b1-2)Man(a1-3)[Gal(b1-3)[Fuc(a1-4)]GlcNAc(b1-2)Man(a1-6)]Man(b1-4)GlcNAc(b1-4)[Fuc(a1-6)]GlcNAc
# Method in brief: as §1
binder,measurement,setting,value
B1,glycan array binding signal (z-score),Gal(b1-3)GalNAc(b1-3)Gal,-0.136
same,glycan array binding signal (z-score),[1],-0.114
same,glycan array binding signal (z-score),[2],-0.124
same,glycan array binding signal (z-score),[3],-0.109
same,glycan array binding signal (z-score),Gal(b1-3)GlcNAc,-0.12
same,glycan array binding signal (z-score),[4],-0.133
same,glycan array binding signal (z-score),[5],-0.057
same,glycan array binding signal (z-score),Gal(b1-3)GlcNAc(b1-2)Man,-0.125
same,glycan array binding signal (z-score),[6],-0.056
same,glycan array binding signal (z-score),[7],-0.082
same,glycan array binding signal (z-score),[8],0.011
same,glycan array binding signal (z-score),[9],-0.01
same,glycan array binding signal (z-score),[10],-0.113
same,glycan array binding signal (z-score),[11],-0.13
same,glycan array binding signal (z-score),[12],-0.132
same,glycan array binding signal (z-score),[13],-0.01
same,glycan array binding signal (z-score),[14],0.257
same,glycan array binding signal (z-score),[15],-0.038
same,glycan array binding signal (z-score),[16],-0.117
same,glycan array binding signal (z-score),[17],-0.154
same,glycan array binding signal (z-score),[18],-0.114
same,glycan array binding signal (z-score),[19],-0.11
same,glycan array binding signal (z-score),[20],-0.106
same,glycan array binding signal (z-score),[21],-0.164
same,glycan array binding signal (z-score),[22],-0.149
same,glycan array binding signal (z-score),Gal(b1-3)GlcNAc6S,-0.159
same,glycan array binding signal (z-score),[23],-0.128
same,glycan array binding signal (z-score),[24],-0.04
same,glycan array binding signal (z-score),[25],-0.083
same,glycan array binding signal (z-score),[26],-0.093
